{"source": "patent US20180362652A1", "about": "(Biogen, published 2018)", "key": {"[1]": {"molecular_target": "T1, monomeric huBDCA2 ectodomain (human, UniProt Q8WTT0 45-213)", "T1 construct": "Prepared by proteolytic cleavage of the purified muIgG2a Fc-huBDCA2 fusion protein (pEAG2423); also called human BDCA2 ectodomain; human BDCA2 ECD", "T1 sequence": "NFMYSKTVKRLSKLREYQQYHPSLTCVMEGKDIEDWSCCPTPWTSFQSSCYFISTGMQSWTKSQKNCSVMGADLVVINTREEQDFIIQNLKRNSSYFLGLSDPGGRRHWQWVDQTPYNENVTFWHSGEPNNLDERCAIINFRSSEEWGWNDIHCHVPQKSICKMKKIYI", "test": "Octet, mAb from conditioned medium on anti-human Fc tips, monomeric huBDCA2 in solution", "method": "The monomeric huBDCA2 ectodomain was prepared by proteolytic cleavage from the purified muIgG2a Fc-huBDCA2 fusion protein (relevant plasmid: pEAG2423). Antibodies from conditioned medium from transiently transfected cells were bound to anti-human Fc tips, and then monomeric huBDCA2 was flowed over the Octet tips, to examine binding and dissociation."}, "[2]": {"molecular_target": "T2, human BDCA2 (full-length, cell surface) (human, UniProt Q8WTT0 1-213)", "T2 construct": "also called huBDCA2; surface human BDCA2", "T2 sequence": "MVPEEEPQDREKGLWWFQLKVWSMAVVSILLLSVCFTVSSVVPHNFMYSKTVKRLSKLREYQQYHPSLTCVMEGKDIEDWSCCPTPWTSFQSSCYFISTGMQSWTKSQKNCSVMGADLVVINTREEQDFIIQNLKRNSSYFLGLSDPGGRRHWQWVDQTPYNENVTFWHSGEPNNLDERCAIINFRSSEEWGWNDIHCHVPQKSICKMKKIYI", "test": "direct binding FACS, conditioned medium on CHO cells co-expressing human BDCA2 and FcεRIγ; column C (midpoint) of the printed 4-P fit, X in ng/ml; A 4.51, B 0.716, D 599, R^2 1; the fit is extrapolated: the highest point drawn is at about 150 ng/ml with MFI about 63, no plateau", "method": "(§1) Conditioned medium was assayed by direct binding FACS on stably transfected DG44 CHO cells co-expressing full-length BDCA2 and FcεRIγ cDNAs (human or cynomolgus monkey), (relevant expression vectors are human BDCA2/FcεRIγ: pEAG2456, cyno BDCA2/FcεRIγ: pEAG2668)."}, "[3]": {"molecular_target": "T3, cynomolgus monkey BDCA2 (full-length, cell surface, E73 SNP form) (cynomolgus monkey, UniProt Q8WTT0 1-213 (human entry))", "T3 construct": "also called cyno BDCA2; surface cynomolgus monkey BDCA2", "T3 chain": "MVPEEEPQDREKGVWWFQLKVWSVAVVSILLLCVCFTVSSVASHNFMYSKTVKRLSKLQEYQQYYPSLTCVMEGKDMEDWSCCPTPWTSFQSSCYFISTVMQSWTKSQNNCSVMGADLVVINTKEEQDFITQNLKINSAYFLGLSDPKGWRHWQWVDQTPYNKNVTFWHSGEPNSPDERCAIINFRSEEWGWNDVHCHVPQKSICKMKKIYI", "test": "direct binding FACS, conditioned medium on CHO cells co-expressing cynomolgus BDCA2 and FcεRIγ; column C (midpoint) of the printed 4-P fit, X in ng/ml; A 2.08, B 0.737, D 8.51E+03, R^2 1; the fit is extrapolated: the highest point drawn is at about 150 ng/ml with MFI about 46, no plateau", "method": "as §1"}}, "data": [{"binder": "ch24F4-huIgG1, kappa mAb (antibody, pYL672/pYL671; also called wildtype ch24F4; Chimeric 24F4) heavy: DVKLVESGGGLVKPGGSLKLSCAASGFTFSTYTMSWVRQTPEKRLEWVATISPGDSFGYYYPDSVQGRFTISRDNAKNTLFLQMSSLKSEDTAMYYCTRDIYYNYGAWFAYWGQGTLVTVSA[human IgG1 constant region not written out] light: DIVLTQSPASLAVSLGQRATISCKASQSVDYDGDSYMNWYQQKPGQPPKLLIYAASTLESGVPARFSGSGSGTDFTLNIHPVEEEDAATYYCQQCNEDPRTFGGGTKLEIKRTVAAPSVFIFPPSDEQLKSGTASVVCLLNNFYPREAKVQWKVDNALQSGNSQESVTEQDSKDSTYSLSSTLTLSKADYEKHKVYACEVTHQGLSSPVTKSFNRGEC", "values": [{"measurement": "Kd", "setting": "[1]", "value": 2.17, "unit": "nM"}, {"measurement": "koff", "setting": "[1]", "value": 0.00349, "unit": "s⁻¹"}, {"measurement": "kon", "setting": "[1]", "value": "1.61e+06", "unit": "M⁻¹ s⁻¹"}, {"measurement": "EC50", "setting": "[2]", "value": 3.52, "unit": "µg/mL"}, {"measurement": "EC50", "setting": "[3]", "value": 200, "unit": "µg/mL"}]}]}
